Experimental findings from the supplement of paper PMC10338343 are described below.

The subject of this experiment is MIWI (PIWIL1) piRISC loaded with L1MC piRNA (30 nt). The experiment is described as follows: pre-steady-state target cleavage rate (min^-1); MIWI and MILI are mouse PIWI proteins and EfPiwi is from a freshwater sponge; tags in brackets are library labels; higher = faster piRNA-guided slicing of the target. Particulars: guide: L1MC piRNA 5'p-UAACUAAAUACUAUGCAAGCUGUAGGUCCU
The essentials: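 The pre-steady-state cleavage rate was obtained by Cleave-'n-Seq with a burst-and-steady-state fit. A transcribed, DNA-blocked target RNA library (0.1 nM) was mixed with 1 nM active affinity-purified piRISC carrying one synthetic guide, with or without 500 nM GTSF1 partner protein, in HEPES–potassium acetate buffer at 33 °C for 0–8 or 0–960 min. Uncleaved targets were sequenced and normalised to depth and to weakly complementary targets, with three trials pooled and k3 capped at 0.0001 min^-1.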

The mark [1] stands for this setting: auxiliary factor: 500 nM mouse GTSF1.
Setting [2] is: auxiliary factor: none (no GTSF1).

± gives the standard deviation. The list shows a part of the results, in another mix than the full data.

Take UCGACGUACAGCUUGCAUUGUAUUUAGUUA: the “pre-steady-state target cleavage rate” value is, setting by setting: under setting [1], 0.883 ± 0.027; under setting [2], 0.0351 ± 0.0076.
The matching figures for UGGACCUACAGCUUGCAUAGUAUUAUGUUA: 0.333 ± 0.039 and 0.0173 ± 0.0035.
The like results for UCCUGGAUGAGCUGGCAUAGUAUUUAGUUA were, in that order, 0.643 ± 0.04 and 0.0166 ± 0.0037.
The matching figures for UCCACCUACACCUUGCAUAGUUUUUAGUUA: 0.249 ± 0.032 and 0.0171 ± 0.0033.
Take UCCUGGAUCAGCUUGGAUAGAAUUUAGUUA: the “pre-steady-state target cleavage rate” value was 0.0979 ± 0.015 under setting [1] and 0.0151 ± 0.0053 under setting [2].
Regarding UCCACCUUCAGCUUGCAUACUAUUUAGUUA, the “pre-steady-state target cleavage rate” value by setting is: under setting [1], 0.313 ± 0.025; under setting [2], 0.0227 ± 0.0046.
Consider UCCUGGAACAGCUUGCAUAGUAUUUGAGUUA, for which the “pre-steady-state target cleavage rate” value came to 0.504 ± 0.054 under setting [1] and 0.0299 ± 0.0081 under setting [2].
As to UCCUGGAACAGCUUGCUUACUAUUUAGUUA, the “pre-steady-state target cleavage rate” value reads like this: under setting [1], 0.362 ± 0.025; under setting [2], 0.0121 ± 0.004.
Take AGGACCUAGAGCUUGCAUAGUAUAUAGUUA: the “pre-steady-state target cleavage rate” value by setting is: under setting [1], 0.683 ± 0.051; under setting [2], 0.0427 ± 0.011.
The matching figures for UCCUGGAACAGCUUGCAUAGUAUUCAGUUA: 0.422 ± 0.044 and 0.0265 ± 0.0073.
Take UCGACCUACAGCUUGCUUAGUAUUUUGUUA: the “pre-steady-state target cleavage rate” value reads like this: under setting [1], 0.977 ± 0.06; under setting [2], 0.0159 ± 0.0041.
For AGGACCGUACAGCUUGCAUAGUAUUUAGUUA, the “pre-steady-state target cleavage rate” value by setting is: under setting [1], 1.16 ± 0.061; under setting [2], 0.0943 ± 0.019.
The matching figures for UCCACCUUGAGCUUGCAUAGUAUUUAGAAA: 0.311 ± 0.049 and 0.00444 ± 0.0019.
As for UCCUCCUACAGCUUGCUUAGUAUUUACUUA, the “pre-steady-state target cleavage rate” value is, setting by setting: under setting [1], 0.52 ± 0.04; under setting [2], 0.0155 ± 0.003.
With UGGUCCUACAGCUUGCAUAGUAUAUAGUUA, the “pre-steady-state target cleavage rate” value runs as follows: under setting [1], 0.647 ± 0.044; under setting [2], 0.0318 ± 0.005.
As for UGGACCUACAGCUUGCCAUAGUAUUUAGUUA, the “pre-steady-state target cleavage rate” value reads like this: under setting [1], 0.242 ± 0.032; under setting [2], 0.00472 ± 0.0025.
The matching figures for AGGACCUACAGCUAGCAUAGUAAUUAGUUA: 0.745 ± 0.06 and 0.0091 ± 0.0021.
The matching figures for UCGACCAACAGCAUGCAUAGUAUUUAGUUA: 1.33 ± 0.037 and 0.033 ± 0.0067.
As for UCCUCCUUCAGGUUGCAUAGUAUUUAGUUA, the “pre-steady-state target cleavage rate” value by setting is: under setting [1], 0.916 ± 0.034; under setting [2], 0.0338 ± 0.006.
Turning to AGGACGAUCAGCUUGCAUAGUAUUUAGUUA, the “pre-steady-state target cleavage rate” value by setting is: under setting [1], 1.43 ± 0.068; under setting [2], 0.0865 ± 0.016.
As to UGGACCUAGAGCUUGCAUAGUUUUUAGUUA, the “pre-steady-state target cleavage rate” value stood at 0.315 ± 0.019 under setting [1] and 0.0256 ± 0.0055 under setting [2].
The like results for AGGACCUACUAGCUUGCAUAGUAUUUAGUUA were, in that order, 0.655 ± 0.033 and 0.0598 ± 0.011.
The like results for AGGACCAUGAGCUUGCAUAGUAUUUAGUAA were, in that order, 0.855 ± 0.045 and 0.0398 ± 0.0094.
For the sequence AGGACCUACAGCUUCGCAUAGUAUUUAGUUA, the “pre-steady-state target cleavage rate” value by setting is: under setting [1], 1.27 ± 0.071; under setting [2], 0.0296 ± 0.0087.
For the sequence UGGACCUACAGCUUGCAUAGUAUUUAGUGA, the “pre-steady-state target cleavage rate” value runs as follows: under setting [1], 1.12 ± 0.064; under setting [2], 0.0575 ± 0.011.
For the sequence UCCUGGAUGAGCUUGCAUAGUAUUUAGUCA, the “pre-steady-state target cleavage rate” value is 0.51 ± 0.044 under setting [1] and 0.0317 ± 0.0075 under setting [2].
The matching figures for UCCUGGAUGAGCUUGCAUAGUAAAUAGUUA: 0.0824 ± 0.013 and 0.00476 ± 0.0025.
The like results for UCCUGGAACAGCUAGCAUAGUAUUUUGUUA were, in that order, 0.546 ± 0.04 and 0.00902 ± 0.0027.
For the sequence UGGACCUACAGCUUGCAUUGUAUUUACAAA, the “pre-steady-state target cleavage rate” value reads like this: under setting [1], 0.0491 ± 0.01; under setting [2], 0.00318 ± 0.002.
The like results for UCCUGGAUCAGUUUGCAUAGUAUUUAGUUA were, in that order, 1.16 ± 0.048 and 0.0503 ± 0.0097.
The like results for UCCUGGUACAGCUAGCAUUGUAUUUAGUUA were, in that order, 0.285 ± 0.032 and 0.0119 ± 0.0035.
In the case of UCCUGCUACAGCUUGCAUAGUAAUUAGAUA, the “pre-steady-state target cleavage rate” value is, setting by setting: under setting [1], 0.285 ± 0.054; under setting [2], 0.00545 ± 0.0023.
Regarding UCCUGGUACAGCUUGCAUAGUUUUUAGAUA, the “pre-steady-state target cleavage rate” value came to 0.136 ± 0.043 under setting [1] and 0.00988 ± 0.0027 under setting [2].
For UCCUGGAUGUCCUUGCAUAGUAUUUAUUUA, the “pre-steady-state target cleavage rate” value under setting [1] was 0.0276 ± 0.0078 and the “pre-steady-state target cleavage rate” value under setting [2] was found to be 0.00546 ± 0.0019.
The matching figures for UCCACCUACAGCUUGCAUAGUUAAUAGUUA: 0.0808 ± 0.015 and 0.00561 ± 0.0018.
Take UCGCCUACAGCUUGCAUAGUAUUUAGUUA: the “pre-steady-state target cleavage rate” value by setting is: under setting [1], 1.5 ± 0.066; under setting [2], 0.0743 ± 0.014.
As for UCGAGCUACAGCUUGCAUAGUAUUUACUUA, the “pre-steady-state target cleavage rate” value under setting [1] is 0.399 ± 0.042 and the “pre-steady-state target cleavage rate” value under setting [2] was determined as 0.0462 ± 0.0084.
The matching figures for UCCACCUACAGCUUGCAUUGUAUAUAGUUA: 0.416 ± 0.025 and 0.0125 ± 0.0031.
With UCCUGGAUCAGCUUGCAUAGUACUUAGUUA, the “pre-steady-state target cleavage rate” value under setting [1] was 0.974 ± 0.042 and the “pre-steady-state target cleavage rate” value under setting [2] worked out at 0.0407 ± 0.01.
The like results for UCCUGCUACAGCUUGCAUUGUAUUAAGUUA were, in that order, 0.502 ± 0.038 and 0.00942 ± 0.0021.
The like results for UCCACCUACAGCUUGCAUUGUAUUAAGUUA were, in that order, 0.363 ± 0.026 and 0.0078 ± 0.002.
The matching figures for UCCUGGUACAGCUUGCAUGUAUUUAGUUA: 0.14 ± 0.015 and 0.00745 ± 0.0029.
For the sequence UCCUGCUACAGCUUGCAUAGUAAUUACUUA, the “pre-steady-state target cleavage rate” value runs as follows: under setting [1], 0.195 ± 0.033; under setting [2], 0.0106 ± 0.0035.
Take UCCUGGAUCAGCUUGCAUACUAUUUAGUAA: the “pre-steady-state target cleavage rate” value runs as follows: under setting [1], 0.0988 ± 0.01; under setting [2], 0.0136 ± 0.0039.
The matching figures for UCCUGCUAGAGCUUGGAUAGUAUUUAGUUA: 0.527 ± 0.042 and 0.0377 ± 0.0059.
The matching figures for UCGACCUACAGCUUGCAAAGUAUUUUGUUA: 0.824 ± 0.041 and 0.0149 ± 0.0024.
Consider UGGACGAACAGCUUGCAUAGUAUUUAGAAA, for which the “pre-steady-state target cleavage rate” value is, setting by setting: under setting [1], 0.485 ± 0.05; under setting [2], 0.0157 ± 0.0042.
Consider UGGACCUAGAGCUUGCAUAGUAUUUAGAAA, for which the “pre-steady-state target cleavage rate” value runs as follows: under setting [1], 0.296 ± 0.034; under setting [2], 0.0101 ± 0.0034.
The matching figures for UCCUGGAACAGCUUGCUAUGUAUUUAGUUA: 0.0729 ± 0.011 and 0.00814 ± 0.0024.
The like results for UCCACCUACAGCUUGCAUAGUAUUUAGGUUA were, in that order, 0.409 ± 0.062 and 0.0153 ± 0.0045.
The like results for UCCUGGUACAGCUUGCAUAGUAUAAAGUUA were, in that order, 0.296 ± 0.053 and 0.0118 ± 0.0031.
Regarding AGGAGGAACAGCUUGCAUAGUAUUUAGAAA, the “pre-steady-state target cleavage rate” value under setting [1] stood at 0.385 ± 0.061 and the “pre-steady-state target cleavage rate” value under setting [2] was determined as 0.00865 ± 0.0029.
Turning to UCCUGCUAGAGCUUGCAUAGUAUUUUGUUA, the “pre-steady-state target cleavage rate” value runs as follows: under setting [1], 0.714 ± 0.069; under setting [2], 0.0251 ± 0.0042.
The like results for UCCACGUACUGCUUGCAUAGUAUUUAGUUA were, in that order, 1.1 ± 0.05 and 0.052 ± 0.0083.
For UGGACCAUCAGCUUGCAUAGUAUUUAGAAA, the “pre-steady-state target cleavage rate” value runs as follows: under setting [1], 0.408 ± 0.033; under setting [2], 0.0117 ± 0.0042.
The matching figures for AGGACGUACAGCUUGCAUAGAAUUUAGUUA: 0.279 ± 0.014 and 0.0225 ± 0.007.
For the sequence UCCUGGUACAGCUUGCAUAGUUAAUAGUUA, the “pre-steady-state target cleavage rate” value reads like this: under setting [1], 0.0509 ± 0.015; under setting [2], 0.00882 ± 0.0026.
Take UCCUGGAUGUGCUUGCAUAGUAAUUUAGUUA: the “pre-steady-state target cleavage rate” value came to 0.00787 ± 0.004 under setting [1] and 0.00505 ± 0.0037 under setting [2].
The like results for UCCUGGAACAGCAUGCAAAGUAUUUAGUUA were, in that order, 0.965 ± 0.051 and 0.0171 ± 0.0044.
Regarding UCGACCUACAGCUUGCAAAGUAUUUUCAAA, the “pre-steady-state target cleavage rate” value is, setting by setting: under setting [1], 0.194 ± 0.026; under setting [2], 0.00273 ± 0.0026.
